Where “and” joins values, the source holds several entries; their conditions need not be identical. Identical values can stand only once. Out of some 420,000 compounds screened, about 64,000 (15%) were called active. The inconclusive results got no clear call from the source; some entries with a clear call stand among them for comparison. Calls follow the shape of the dose curve; as a rule, active = well fitted inhibition curve with a large enough effect; inconclusive = small, poorly fitted or top-dose-only effect; inactive = flat fitted curve, though single readings scatter. Where the call is inconclusive, the potency comes from a doubtful curve fit.
Test: qHTS for Inhibitors of human tyrosyl-DNA phosphodiesterase 1 (TDP1): qHTS in cells in absence of CPT; also: nearly all actives have a fitted effect of over 55% in size
Conditions: DT40 Tdp1-/- hTDP1 cells, no CPT, ATP luminescence, 48 h; activity change, negative = growth inhibition: at 46.2 µM (top of the series)
Method in brief: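 Stably hTDP1-transfected Tdp1-null chicken DT40 cells were treated with library compounds minus camptothecin and grown for at least 48 hr at 37 °C, after which cellular ATP was quantified by luminescence.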
% is scaled to controls: 0 for no effect and ±100 for the full control effect; potency is read from the fitted curve at half-maximal effect; tags tell the direction and shape of the fitted curve.

Which activity change, negative = growth inhibition does the source give for `Cc1c(C(=O)OCC(=O)N2CCC(C)CC2)oc2ccccc12` here?
The activity change, negative = growth inhibition was inconclusive: -30.9% [inhibitor].

For `COc1ccc(N2CCN(C(CNC(=O)C(=O)NCc3cccnc3)c3cccnc3)CC2)cc1` (stereo not drawn), which Potency is on record?
The Potency was inconclusive: 18.4 µM [inhibitor, partial curve].

For `Cc1ccccc1CNC(=O)Cc1ccc(NC(=O)N2CCCCc3ccccc32)cc1`, which Potency is on record?
The Potency was active: 18.4 µM.

With `CCCCC(=O)Nc1cc(OC)c(NC(=S)Nc2ccc(OC)cc2)cc1OC` as the compound, how does the Potency read?
The Potency was inconclusive: 18.4 µM [inhibitor, single point].

For `Cn1c(=O)c2c(nc(N3CCOCC3)n2Cc2cccc(Br)c2)n(C)c1=O`, which Potency is on record?
Its Potency is active: 5.8 µM.

For `CC(C)(C)SCCNC(=O)CN(c1ccc(F)c(Cl)c1)S(C)(=O)=O`, which Potency is on record?
Its Potency is “inactive”.

Which Potency does the source give for `COc1ccc([C@H]2CC(=O)C=C(c3ccc(C)cc3)C2)cc1OC` here?
Its Potency is inconclusive: 29.1 µM [inhibitor, single point].

With `COc1ccc(C(C(=O)NC(C)(C)C)n2c(-c3ccc(C(F)(F)F)cc3)nc3ccccc32)cc1` (stereo not drawn) as the compound, how does the Potency read?
Its Potency is inconclusive: 23.1 µM [inhibitor, single point].

With `O=S(=O)(CCc1ccncc1)c1ccc(Cl)cc1` as the compound, how does the Potency read?
The Potency was inconclusive: 18.4 µM [inhibitor, single point].

For `CC1=CC(=Nc2c(C)n(C)n(-c3ccccc3)c2=O)C=C(C)C1=O`, which Potency is on record?
The Potency was active: 20.6 µM.

For `CCOc1ccccc1C(=O)NCC(=O)NNC(=O)c1cccc(S(=O)(=O)Nc2ccc(OC)cc2)c1`, which Potency is on record?
Its Potency is inconclusive: 29.1 µM [inhibitor, single point].

With `O=c1c(CCc2ccccc2)nc2cnc(Oc3ccccc3)nc2n1C[C@H]1CCCO1` as the compound, how does the Potency read?
Its Potency is active: 18.4 µM.

Which Potency does the source give for `Cc1[nH]n2c(=O)cc(-c3ccc(Cl)cc3)nc2c1-c1ccccc1` here?
Its Potency is active: 0.92 µM.

Which Potency does the source give for `CC1=C(C(N)=O)C(c2cccnc2)n2nc(-c3cccc(C)c3)nc2N1` (stereo not drawn) here?
Its Potency is inconclusive: 6.51 µM [inhibitor, single point].

For `S=c1nc(COc2ccccc2)[nH]c2ccccc12`, which Potency is on record?
The Potency was inconclusive: 23.1 µM [inhibitor, single point].

With `Cc1ccc(-c2cc(N)n(-c3ccc(C)cc3)n2)cc1` as the compound, how does the Potency read?
The Potency was “inactive and inconclusive: 29.1 µM [inhibitor, single point]”.

For `CC(=O)OC[C@H]1O[C@@](COC(C)=O)(O[C@H]2O[C@H](COC(C)=O)[C@@H](OC(C)=O)[C@H](OC(C)=O)[C@H]2OC(C)=O)[C@@H](OC(C)=O)[C@@H]1OC(C)=O`, which Potency is on record?
Its Potency is “inactive”.

For `CCOc1ccc(C(=O)c2cn(CC(=O)Nc3cccc(OC)c3)c3cc4c(cc3c2=O)OCCO4)cc1`, which Potency is on record?
Its Potency is inconclusive: 23.1 µM [inhibitor, partial curve].

Which Potency does the source give for `CN(C)CCSc1nc(O)c(-c2ccccc2)c(=O)n1-c1ccccc1` here?
Its Potency is “inactive”.

For `COc1ccc([C@H]2C[C@@H](O)[C@H](n3cc(-c4ccc(F)cc4)nn3)CN2C(=O)C2CCCCC2)cc1`, which Potency is on record?
Its Potency is inconclusive: 10.3 µM [inhibitor, partial curve, poor fit].

With `Cc1ccc(NC(=O)C2CCN(S(=O)(=O)c3ccc4c(c3)NC(=O)CO4)CC2)cc1` as the compound, how does the Potency read?
Its Potency is inconclusive: 29.1 µM [inhibitor, single point].

Which Potency does the source give for `CN(C)c1ncnc2sc(-c3ccccc3)cc12` here?
The Potency was “inactive”.

Which Potency does the source give for `O=S(=O)(NCC1CCN(Cc2ccccc2)CC1)c1ccccc1C(F)(F)F` here?
Its Potency is “inactive”.

For `S=C1Cc2ccccc2N1`, which Potency is on record?
The Potency was active: 0.731 µM.

Which Potency does the source give for `O=C1C=C(c2ccoc2)N2CCC[C@H]2C1` here?
Its Potency is “inactive”.

With `O=C(CSc1nnc2ccc(-c3ccncc3)nn12)c1cccs1` as the compound, how does the Potency read?
Its Potency is inconclusive: 29.1 µM [inhibitor, single point].

With `O=C(Nc1ccnn1C1CCN(Cc2cccc(OCCO)c2)CC1)C1CCCC1` as the compound, how does the Potency read?
The Potency was “inactive”.

For `Cn1cnnc1SCC(=O)Nc1ccc2nc(SCc3ccccc3)sc2c1`, which Potency is on record?
The Potency was inconclusive: 23.1 µM [inhibitor, single point].

For `Cc1ccc(NCc2nc3ccccc3n2C)c(C)c1`, which Potency is on record?
Its Potency is inconclusive: 13 µM [inhibitor, partial curve].

With `C(=C\c1ccccc1)/CN1CCN(C(CCc2ccccc2)c2nnnn2C2CCCC2)CC1` (stereo not drawn) as the compound, how does the Potency read?
The Potency was inconclusive: 18.4 µM [inhibitor, single point].

Which Potency does the source give for `CCOc1ccc(CCNC(=O)c2ccc(C)c(S(=O)(=O)N3CCOCC3)c2)cc1OCC` here?
The Potency was inconclusive: 29.1 µM [inhibitor, single point].

For `COC(=O)CSC1=C(C#N)C(c2ccccc2F)CC(=O)N1` (stereo not drawn), which Potency is on record?
Its Potency is inconclusive: 29.1 µM [inhibitor, single point].

For `Cc1ccc(C)c(N(CC(=O)NCc2ccc3c(c2)OCO3)C(=O)CCC(=O)Nc2ccccn2)c1`, which Potency is on record?
Its Potency is inconclusive: 23.1 µM [inhibitor, single point].

For `COc1ccccc1CNC(=O)C(C)n1ccc2cc(S(=O)(=O)N3CCCC3)ccc21` (stereo not drawn), which Potency is on record?
Its Potency is inconclusive: 29.1 µM [inhibitor, partial curve, poor fit].

For `Cc1ccc(C2Nc3cc(C)c(C)cc3-n3c(-c4ccccc4)c4c(=O)n(C)c(=O)n(C)c4c32)o1` (stereo not drawn), which Potency is on record?
Its Potency is active: 9.2 µM.

With `Cc1cccc(-n2c(CNC(=O)c3ccccc3)nnc2SCC(=O)Nc2nccs2)c1` as the compound, how does the Potency read?
The Potency was inconclusive: 5.17 µM [inhibitor, single point].

Which Potency does the source give for `CC(=O)C1CCC2C3CC(C)C4=CC(=O)CC[C@@]4(C)C3C(O)C[C@@]12C` (stereo partly drawn) here?
The Potency was inconclusive: 29.1 µM [inhibitor, single point].

For `Cc1cccc(C(=O)NCCNC(=O)c2cnccn2)c1`, which Potency is on record?
The Potency was “inactive”.

Which Potency does the source give for `CCn1c(SC(C)C(=O)Nc2ccc(C)cc2)nnc1-c1ccccc1` (stereo not drawn) here?
Its Potency is “inactive”.

Which Potency does the source give for `Cc1ccc(NC(=O)CSc2nc3c([nH]c4ccccc43)c(=O)n2-c2ccccc2)cc1Cl` here?
Its Potency is active: 23.1 µM.

For `COC(=O)C1=C(C(=O)OC)[C@@H]2N(Cc3ccccc3)c3ccccc3[C@@]23C[C@@H](C(=O)OC)N(C(=O)c2cccs2)C3=N1`, which Potency is on record?
Its Potency is inconclusive: 29.1 µM [inhibitor, single point].

With `C#CCNC(=O)C1=C[C@H](c2csc3ccccc23)[C@@H](CCCO)[C@H](OCC)O1` as the compound, how does the Potency read?
Its Potency is inconclusive: 29.1 µM [inhibitor, single point].

With `CCOC(=O)c1c(C)oc2nc(C)nc(N3CCN(c4ccccc4F)CC3)c12` as the compound, how does the Potency read?
Its Potency is active: 7.31 µM.

With `COc1ccc(N2CCN(CCCNC(=O)Cn3c(=O)c4cccn4c4cccnc43)CC2)cc1` as the compound, how does the Potency read?
The Potency was inconclusive: 23.1 µM [inhibitor, single point].

Which Potency does the source give for `COc1ccccc1-c1nn2c(-c3cc(-c4ccccc4)n[nH]3)nnc2s1` here?
Its Potency is active: 4.47 µM.

Which Potency does the source give for `COc1cc(/C=N/NC(=O)c2ccccc2)ccc1OS(=O)(=O)c1ccccc1` here?
The Potency was inconclusive: 25.9 µM [inhibitor, single point].

Which Potency does the source give for `Cc1ccc(F)cc1NC(=O)CCc1c(C)nn(-c2ccc(N3CCOCC3)nn2)c1C` here?
Its Potency is inconclusive: 18.4 µM [inhibitor, single point].

For `c1ccc2c(Nc3nnc(-c4ccncc4)s3)cccc2c1`, which Potency is on record?
Its Potency is “inactive”.

Which Potency does the source give for `Cc1ccc(SCCn2nc(C(=O)O)c3ccccc3c2=O)cc1` here?
The Potency was inconclusive: 10.3 µM [inhibitor, partial curve].

With `O=C(CCc1ccccc1)N=C1SC2CS(=O)(=O)CC2N1c1ccccc1F` (stereo not drawn) as the compound, how does the Potency read?
Its Potency is “inactive”.

Which Potency does the source give for `CCOc1ccc(NC(=O)CN(C)C(=O)/C=C/c2ccco2)cc1OCC` here?
The Potency was “inactive”.

For `CCc1cc2c(C)ccc(C)c2nc1SCC(=O)Nc1c[nH]c(=O)[nH]c1=O`, which Potency is on record?
The Potency was active: 11.6 µM.

For `CCOc1ccccc1NC(C)C(=O)Nc1cc(C(F)(F)F)ccc1N1CCOCC1` (stereo not drawn), which Potency is on record?
Its Potency is active: 18.4 µM.

Which Potency does the source give for `Cc1cccc(C)c1NC(=O)CN1CCN(C(=O)CNC(=O)c2ccc(-c3ccccc3)cc2)CC1` here?
Its Potency is active: 16.4 µM.

With `CCOc1ccc(S(=O)(=O)NCCC(=O)NCC(c2ccc(OC)cc2)N2CCCCC2)cc1` (stereo not drawn) as the compound, how does the Potency read?
The Potency was “inactive”.

Which Potency does the source give for `CC(=O)c1c(C)[nH]c(C(=O)COc2ccc(C#N)cc2)c1C` here?
Its Potency is inconclusive: 8.2 µM [inhibitor, partial curve, poor fit].

With `CC1Cn2c(C(=O)NCCc3ccc(Cl)cc3)cc3cccc(c32)S1` (stereo not drawn) as the compound, how does the Potency read?
The Potency was inconclusive: 18.4 µM [inhibitor, single point].

With `CC(C)c1ccc(S(=O)(=O)N2CCN(C(=O)c3ccncc3)CC2)cc1` as the compound, how does the Potency read?
The Potency was inconclusive: 29.1 µM [inhibitor, single point].

With `Cc1ccc2[nH]cc(S(=O)(=O)c3ccc(C)c(C)c3)c(=O)c2c1` as the compound, how does the Potency read?
The Potency was inconclusive: 13 µM [inhibitor, partial curve, poor fit] and inconclusive: 18.4 µM [inhibitor, single point].

For `Cn1c(-c2ccccc2)c(/C=N/NC(=O)c2cccnc2)c2ccccc21`, which Potency is on record?
Its Potency is active: 23.1 µM.

For `O=C(NNc1cccc(Cl)n1)Nc1cccc(Cl)c1`, which activity change, negative = growth inhibition is on record?
Its activity change, negative = growth inhibition is inconclusive: -33.1% [inhibitor].

With `COC(=O)c1ccc(Oc2nc(NC(C)C)nc(SC)n2)cc1` as the compound, how does the Potency read?
Its Potency is inconclusive: 8.2 µM [inhibitor, partial curve].

For `C/C(=N\NC(=O)c1cccs1)c1cccnc1`, which Potency is on record?
Its Potency is active: 25.9 µM.

Which Potency does the source give for `COc1ccccc1C(=O)COC(=O)c1ccc(Cl)nc1` here?
Its Potency is inconclusive: 29.1 µM [inhibitor, single point].

Which Potency does the source give for `CCC(C)Sc1cc(-c2nc3ccccn3c2NC2CCCCC2)ccc1OC` (stereo not drawn) here?
Its Potency is active: 13 µM and active: 14.6 µM.

With `CN1C(=O)C(CC(=O)Nc2ccc(F)cc2)N(Cc2cccs2)C1=S` (stereo not drawn) as the compound, how does the Potency read?
The Potency was inconclusive: 29.1 µM [inhibitor, single point].

Which Potency does the source give for `CC(C)c1ccc(NC(=O)NC(C)c2ccc3c(c2)OCO3)cc1` (stereo not drawn) here?
Its Potency is inconclusive: 25.9 µM [inhibitor, single point].

Which Potency does the source give for `CC(C)N(C(=O)[C@H]1C[C@H](CC(=O)NCC23CC4CC(CC(C4)C2)C3)C(=O)N2CCc3c([nH]c4cc(-c5ccco5)ccc34)[C@]12C)C(C)C` here?
The Potency was inconclusive: 29.1 µM [inhibitor, single point].
